Assay results reported in PubChem BioAssay AID1768 (National Center for Advancing Translational Sciences (NCATS), 2009).
Out of some 270,000 compounds screened, about 620 (0.23%) were called active. This list was built around the results that the source calls inconclusive (neither active nor inactive); the mix of calls is not that of the screen. Calls come from the whole dose curve; as a rule, active = well fitted inhibition curve with a large enough effect in the polarisation, with a control signal flat (not every such curve was filed as active); inconclusive = small, poorly fitted or top-dose-only effect, or effect the other way, or a change in a side signal; inactive = no such curve, though single readings can be large or run the other way; the % refers to the polarisation. Where the call is inconclusive, the potency comes from a doubtful curve fit. A note “side channel” means that the fit belongs to a control or component signal, not to the main read-out.

target: Menin (Homo sapiens) (UniProt O00255); test: qHTS Assay for Inhibitors Targeting the Menin-MLL Interaction in MLL Related Leukemias: Competition With Texas Red Labeled MLL-derived Mutant Peptide; details: fluorescence polarization; series mostly up to 61.6 µM; FP activity change, negative = inhibition: at the top concentration; for FP activity change, negative = inhibition: % of control where 0% means no effect
Sequence of UniProt O00255 (O00255 whole entry, looked up): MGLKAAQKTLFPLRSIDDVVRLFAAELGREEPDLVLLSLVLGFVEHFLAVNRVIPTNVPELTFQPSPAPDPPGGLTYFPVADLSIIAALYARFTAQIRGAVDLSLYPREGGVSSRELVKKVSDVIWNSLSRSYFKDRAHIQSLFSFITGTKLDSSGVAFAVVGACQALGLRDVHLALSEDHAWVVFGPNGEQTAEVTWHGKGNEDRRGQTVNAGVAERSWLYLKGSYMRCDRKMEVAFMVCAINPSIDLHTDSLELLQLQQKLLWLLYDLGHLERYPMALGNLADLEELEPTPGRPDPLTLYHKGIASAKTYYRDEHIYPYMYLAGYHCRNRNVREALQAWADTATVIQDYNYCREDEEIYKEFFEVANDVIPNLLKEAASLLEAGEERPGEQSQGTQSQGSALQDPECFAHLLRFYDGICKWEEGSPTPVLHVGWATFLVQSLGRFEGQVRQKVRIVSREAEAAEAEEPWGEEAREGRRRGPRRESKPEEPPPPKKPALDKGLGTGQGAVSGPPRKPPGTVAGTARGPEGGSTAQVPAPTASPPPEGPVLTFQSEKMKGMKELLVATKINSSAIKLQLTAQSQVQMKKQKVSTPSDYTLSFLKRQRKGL
Potency is the fitted concentration of half-maximal effect; tags give direction and shape of the fitted curve or compound fluorescence and quenching.

Question: With `COCCCn1c(N)c(C(=O)NCCC(C)C)c2nc3ccccc3nc21` as the molecule, how does the “FP activity change, negative = inhibition” value read?
Answer: The value was inactive: -14.5%.

Question: `CCOc1cc(CNCCc2cccc(F)c2)ccc1OC` was tested. Which Potency did it give?
Answer: Its Potency is inconclusive: 10 µM [inhibitor, partial curve].

Question: `O=c1[nH]sc2cc(F)ccc12` was tested. Which “FP activity change, negative = inhibition” value did it give?
Answer: Its value is inactive: 2.81%.

Question: For `O=c1[nH]c(=O)n(CCc2ccc(F)cc2)c(O)c1C=NCCCn1ccnc1`, which Potency is on record?
Answer: Its Potency is inconclusive: 28.2 µM [inhibitor, partial curve].

Question: `CNc1ccc2nc3ccccc3[n+](C)c2c1` was tested. Which Potency did it give?
Answer: The Potency was inconclusive: 5.01 µM [fluorescent, side channel, full curve].

Question: With `CCOc1cc(-c2c(C#N)c(=O)[nH]c3c2c(C)nn3-c2ccc(F)cc2)ccc1O` as the molecule, how does the Potency read?
Answer: The Potency was inconclusive: 7.94 µM [quencher, side channel, full curve].

Question: With `CC(C)[C@H]1C(=O)N2CCC[C@H]2[C@]2(O)O[C@](NC(=O)[C@@H]3C=C4c5cccc6[nH]cc(c56)C[C@H]4N(C)C3)(C(C)C)C(=O)N12` as the molecule, how does the Potency read?
Answer: The Potency was inconclusive: 0.708 µM [inhibitor, full curve, poor fit].

Question: For `Cc1ccsc1-c1nc(CSCC(=O)N2CCC3(CC2)OCCO3)c(C)o1`, which Potency is on record?
Answer: The Potency was inconclusive: 8.91 µM [fluorescent, side channel, partial curve, poor fit].

Question: For `CCNC(=O)NC(=O)C(C)OC(=O)c1c(C)nn(Cc2ccccc2Cl)c1Cl` (configuration not stated), which Potency is on record?
Answer: Its Potency is inconclusive: 8.91 µM [fluorescent, side channel, partial curve].

Question: How did the “FP activity change, negative = inhibition” value turn out when `CN1CCN(c2ccc(F)cc2N)CC1` was run?
Answer: The value was inactive: -14.6%.

Question: `CN1C(=O)C(Cc2ccsc2)C(=O)N(C)C1=O` was tested. Which Potency did it give?
Answer: Its Potency is inconclusive: 8.91 µM [inhibitor, full curve, poor fit].

Question: With `O=C1NC(=O)N(Cc2ccccc2)C(=O)/C1=C/c1cnc(-c2ccccc2)nc1` as the molecule, how does the Potency read?
Answer: Its Potency is inconclusive: 20 µM [quencher, side channel, single point].

Question: How did the Potency turn out when `CC(=O)c1c(O)c(C)c(O)c(Cc2c(O)c3c(c(C(=O)/C=C\c4ccccc4)c2O)OC(C)(C)C=C3)c1O` was run?
Answer: The Potency was inconclusive: 3.16 µM [quencher, side channel, full curve].

Question: With `CCCN1CCc2cc(O)cc3c2C1Cc1ccc(O)c(O)c1-3` (configuration not stated) as the molecule, how does the “FP activity change, negative = inhibition” value read?
Answer: Its value is inactive: -14.6%.

Question: For `CCN(CC)C(=O)Oc1ccc(OC(=O)N(CC)CC)cc1`, which Potency is on record?
Answer: Its Potency is inconclusive: 10 µM [fluorescent, side channel, partial curve].

Question: How did the Potency turn out when `CCCc1[nH]nc2c1C(c1ccc(OC)c(Cn3nnc4ccccc43)c1)C(C#N)=C(N)O2` (configuration not stated) was run?
Answer: The Potency was inconclusive: 39.8 µM [inhibitor, single point].

Question: How did the Potency turn out when `CN1C(=O)C(C2c3ccccc3C(=O)N2Cc2ccccc2)C(=O)N(C)C1=O` (configuration not stated) was run?
Answer: Its Potency is inconclusive: 10 µM [inhibitor, partial curve, poor fit].
